The supplement of paper PMC12632987
The full ranking holds about 4,500 sequences; the median of “median log2 fold change of GCK-ALFA target abundance (FLAG IP / Myc IP barcode read proportion)” is about 0.078, and the lowest 2% start at about -0.6. The list shows a part of the results.

B1: GBRAP_52_6379 (protein)
chain: MVEEAKKLLKEAIELIMKGGPLEEVKEIAKKILEFDEETIEEAAKLLAEEILELSPEEAEAALDAAIELADILIEEGLPEEVASLIEAEIGKAAYEVLQR
B2: GBRAP_184_5203 (protein)
chain: MLKEYTIEFNNLEELKEKLKELLEEVKGFKGTLYIHVKAPEITKEMAEEIIKMVKEIKENGYATEIIVDIDGKVSEEVEDLLLEEFEKIGAKVVIALSEE
B3: GBRAP_184_5096 (protein)
chain: KTLERRIEAETLEEARAQIEAAVAEAAAAGAALTLLLDLEGISEEEIEELVRWLGELAAAAGVPAVTLGIDQLLSEEAADRVIATADELGIRLVLALPEE
B4: GBRAP_78_6625 (protein)
chain: EIKKLLEKALKKVEEAAKLATKIPSEEGIEILDHLIDAFEYIEEAIEEGGDLEKLEKALKHLEEALKEIEKLNNPELEELKKLVKEAIKLLKKAIELKKK
B5: GBRAP_11_2808 (protein)
chain: KKEELEKAAKLAKEAAEAVEKLLKEGVDNEELLEKIEKLLEELEKLAKEYLDKGSQKLVEIAKELLKKAREDPENAKEYLEQLLATLRVLEGNVLLEIEE
B6: GBRAP_42_5728 (protein)
chain: MYLVNLEVYVETKEEAEKAIKIWRELNEKYEKEYGIIINLTIVGPEETEEIAEEAEKESEEKAKKATKESDWVVVASSADEVEKAINIAVDLALEERKEE
B7: GBRAP_83_6931 (protein)
chain: KEKITVAGAGDSIPEAFAAAIDLHKEDGYEVDLELIARREDLPTILAEFERVAAAGVDTDLDILLEGATPEEAAALQARLEAIAARHGVDVDVTVTVVEP
B8: GBRAP_83_6907 (protein)
chain: AEKIAVAAPADHAVEMADAVIDLTKEEGYEVEVEILATKEEKEKVKEAVEKLAKAGVETEVTVYLFGATEEEAEELKKELEEIAKKYGTNIKINVELIEE
B9: GBRAP_160_4586 (protein)
chain: SEELEKAKKIVEEEFEEAKEMIKGQTAEQRAVIVLGAGGRIIMELEELEEATDELLDFVDEVFDELAATILANPDLTDEELVALIDEAREKILEALEKHF
B10: GBRAP_139_3720 (protein)
chain: SAKEKVIEEVKKIVKENKDNLEKLAKLVAEKIAEVDDETALEIARAAAEELKDKSWEEFEEFLELVEKELKKLGFDEDRVLAIAGEFEAVRAKIELAKLE
B11: GBRAP_52_5898 (protein)
chain: AKERLVELLLAAARAVEAGDEERAKALIREAIKEGAKLTPEEVREAVEEAAKRLAGLPQEVKERLLELVLEVYDEDDDLTDEERAVLGEIAAALAKLILA
B12: GBRAP_11_2690 (protein)
chain: KKEKLKEIAELAEKLAEVLAELLEVGVDNEELLEEAERLLEELEKLVEEHADEGMKKLARILREEFEKALEDPENAEEHVQEALAIARVLAGNALLEIEE
B13: GBRAP_128_3233 (protein)
chain: MPEELKAKVEALIDTIINGDVAEAAAATAELVALMGEVSLEEAEEIAKMVIEALKKLTVEKLETVADTIEANRGTLDPEKQNLANDVLIEALNLAEEKEE
B14: GBRAP_160_4753 (protein)
chain: SEELKKLKEEVKEIFEEGIKMLKEVPASEAPTVLRGTMGEVLMLVFSSEAASDELEEKVGEIADEAEKKADANADAPVEYHIELLKEAEKKVLETIEKEI
B15: GBRAP_160_4249 (protein)
chain: SERIEEIREEIEEEAEVLLEALLESPRSQWPAFARAMAGDIVQIVIEDPLATDEMEEKVDELAEEMAERLVAAADASPEELRALLREGVERIVKAIEELL
B16: GBRAP_42_5727 (protein)
chain: KYKVTLELYVETKEELERAVEIWKELNKKALEEYDIIIELRVAAPEEAEELAEEVNKESEELAKEATEESDWVVVAGSADQVEDAIKAAVDLALEEIKER
B17: GBRAP_128_3201 (protein)
chain: VSPEAVEELRKLAEEVIKTKTDEAIKEFAEAVAKALKAGKIDLDTLEEIVRELGKGLTPDDIAKAADALDEALADVGAEARAVALGELGEEIMEKEEEEE
B18: GBRAP_11_2608 (protein)
chain: KKEILKELAELAEKAAETVERLLEVGVDDEELLKEIRELIEKLAELVEKHGDEADKTDVEVIRELWEEALRDPENQREYLEQLLAALRVFSGNYLLEIEE
B19: GBRAP_160_4140 (protein)
chain: KEELEKLIKEIREIAEEAIELIKDESREEAKTIAKVALGEIVMLVMSNEAVSEETEEKVGEIMREAEEELEENEDATNEEIIELLRKAAEEVIKILKEEI
B20: GBRAP_128_3307 (protein)
chain: MDEELLEEARELIERLKEADEEEAAELVREIAELLEKATPEEREEIAELFEEALKELSAEKLDVVADTLRELIPKATPETANVLADLQVEALNLAEEKEE
B21: GBRAP_139_3763 (protein)
chain: DETEKKVEEARELTKKLIEGDEEAAKELAKLAKSVDDETLRKIADAIREALKGQDPDTIAKVEDLLEKEMKEVGASEETILLISGAITEAEAEAIVAELA
B22: GBRAP_52_5907 (protein)
chain: MKEELEKILNEIIEAVKAGKLEEARKIARELAEKYDDETLEEFIELFAEMVLEAPEEDLPYYWKAAEILAEEFEREGKDEVLADLLLSRTAAAIYEKLQR
B23: GBRAP_84_7002 (protein)
chain: ASEEEILKITKEILKKSSIKLKQLLLTYLILKNVNKAATLALNDLMKRDIEAAAEALDLATEAYEEGKEEEVKKELLEEAKKEGEEVYKLVEELIKAIES
B24: GBRAP_84_7005 (protein)
chain: SREEEIVEITAEILEKASIETKALLLTYLILKNANKAATLALNDLLEEDPEAAVEALDRATEAYEEGKEEEVEKELLEKAKEEGEELAELVERLLELLKE
B25: GBRAP_52_6178 (protein)
chain: MRERMRKLVEEIVALARAGDEEGAKKLIRELAKTLNDEELKIFADEFARLVLASPLEELDLLADLLDTIEEILEEEGVDPRIIAYIRGKFATAAYQREQA
B26: GBRAP_52_6256 (protein)
chain: MEEKAKEVAEEIYKLVLAGKLEEARKKAREFVESSNEEELELFIKEVRELILKSDKSDLEALEKMVEIVSEALEEAGKPEELVSLLEAEGYGAIYELEQR
B27: GBRAP_39_5657 (protein)
chain: EEEEENELEFSYLVALAVKYQVERGISTEELIAEGLARLRRLAAEHPEIRELVERLIELAESGDEETKLAAAGIALLAEEGTPLEEIREHIERFIAYLES
B28: GBRAP_184_5207 (protein)
chain: KIKEVTIEFENLEELKKKLEELKKEVEGFKGTLYIIVKAKEITLEMAEEILNMLKEIKENGYATEIIVDVEGEVSEEVLDKLLNGSKEIGVKLTVALSEE
B29: GBRAP_78_6655 (protein)
chain: KVEELIDKSMEYLDKASKLTKELPEEDRNELMDLLVEAATYLLESEENNFDLENLKKALEKLKKALEYAKSLNTPVAKKIAEELEKAIKYLEEAIKLLEE

target: GABARAP, O95166; assay: median log2 fold change of GCK-ALFA target abundance (FLAG IP / Myc IP barcode read proportion) (log2 ratio); each designed protein is fused to an ALFA-tag nanobody in HEK293 cells to bring the named protein to FLAG-tagged glucokinase (GCK); Myc marks an untargeted standard; higher = target protein stabilised (more abundant); conditions: target protein: 3xFLAG-MCP-GCK-ALFA reporter; HEK293 landing pad (RPLP)
Summary of the method: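 Sequencing of reverse-transcribed, amplified circular RNA barcodes from anti-FLAG and anti-Myc immunoprecipitates provided the readout for an ALFA-nanobody-fused binder library recombined into HEK293 landing-pad cells. Those cells were induced with 2 μg mL^−1 doxycycline, transfected with a plasmid expressing a FLAG-tagged target and a Myc-tagged standard, and lysed after 48 h. Target abundance is the per-binder median log2 ratio of FLAG to Myc barcode read proportions. Only barcodes at a proportion of ≥10^−7 in both replicates and binders with ≥3 barcodes per replicate were kept, with a 10^−6 pseudocount added before the two replicates were pooled.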

GABARAP, O95166, sequence (O95166 whole entry, the tested form may be a part): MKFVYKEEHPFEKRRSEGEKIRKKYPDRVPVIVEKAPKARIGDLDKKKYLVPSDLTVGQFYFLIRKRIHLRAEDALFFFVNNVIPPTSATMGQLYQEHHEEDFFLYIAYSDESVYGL

Row | Binder | median log2 fold change
1 | B1 | -0.103
2 | B2 | 0.00126
3 | B3 | 0.0152
4 | B4 | 0.283
5 | B5 | 0.308
6 | B6 | 0.212
7 | B7 | 0.0959
8 | B8 | 0.21
9 | B9 | -0.128
10 | B10 | 0.00762
11 | B11 | -0.116
12 | B12 | 0.0639
13 | B13 | 0.352
14 | B14 | 0.295
15 | B15 | -0.175
16 | B16 | 0.485
17 | B17 | 0.315
18 | B18 | 0.145
19 | B19 | 0.101
20 | B20 | 0.0926
21 | B21 | 0.227
22 | B22 | -0.881
23 | B23 | -0.516
24 | B24 | -0.259
25 | B25 | -0.00387
26 | B26 | 0.0683
27 | B27 | 0.168
28 | B28 | -0.166
29 | B29 | 0.0181
